# Assay results published in PubChem BioAssay AID904 (National Center for Advancing Translational Sciences (NCATS), 2007).
# The whole screen tested about 55,000 compounds, of which about 530 (0.96%) were called active. Inconclusive means that the source gave no clear call. Such entries were picked first, then a sample of the others. Calls come from the whole dose curve; as a rule, active = well fitted cell-killing curve with a large enough effect; inconclusive = small, poorly fitted or top-dose-only effect; inactive = no such curve, though single readings can be large or run the other way. A potency beside an inconclusive call is a rough fit, not a confirmed value.
# Test: qHTS Screen for Compounds that Selectively Target Cancer Cells with p53 Mutations: Cytotoxicity of p53 Null Cells at the Nonpermissive Temperature; note: nearly all actives have a fitted effect of over 50% in size
# Details: H1299 p53-null (neo) cells, 39C, ATPlite viability, 24 h; series mostly up to 46.1 µM
# Procedure, shortened: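 ATP-luminescence viability readout (ATPlite, 20 min RT) after 24 hr compound treatment at 39C of H1299-neo or H1299-p53A138V cells; titration up to 46 uM; normalized to DMSO and 100 uM tamoxifen; Hill-fit AC50.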
# Potency is the fitted concentration of half-maximal effect; tags give direction and shape of the fitted curve.
row,Structure (SMILES),Potency
1,O=C(Nc1nc2c(s1)CCCC2)c1ccccc1F,active: 7.94 µM
2,Cc1ccc(-c2cc(NC(=O)C(C)Oc3ccccc3F)on2)cc1 (centres undefined),"inconclusive: 28.2 µM [cytotoxic, single point]"
3,COc1ccc(Nc2c3c(nc4ccc(NC(=O)c5cc(Cl)ccc5OC)cc24)CCCC3)cc1OC,active: 5.01 µM
4,COc1ccc(N2CCN(C(=O)Nc3ccccc3Cl)CC2)cc1,"inconclusive: 0.251 µM [cytotoxic, full curve, poor fit]"
5,CCCc1nn2c(=O)cc(COC(=O)c3ccccc3NC(=O)c3ccc(OCC)cc3)nc2s1,"inconclusive: 0.316 µM [cytotoxic, full curve, poor fit]"
6,CCOc1ccc(-c2cc3c(=O)n(CC(=O)NCc4ccccc4)ccn3n2)cc1,"inconclusive: 3.98 µM [cytotoxic, partial curve, poor fit]"
7,COC(=O)c1cc(NC(=O)Cn2ncc3c([nH]c4ccccc43)c2=O)cc(C(=O)OC)c1,inactive
8,CCOc1ccc(C(=O)Nc2ccc(C(=O)OCc3cc(=O)n4c(C)csc4n3)cc2)cc1,active: 12.6 µM
9,CC1CCN(C(=O)c2cc(-c3ccc(Cl)c(Cl)c3)on2)CC1,inactive
10,CCc1ccc(C(=O)c2cn(CC(=O)Nc3cc(OC)cc(OC)c3)c3ccc(CC)cc3c2=O)cc1,inactive
11,CCCOc1ccc(CN2C(=O)C(=O)c3cccc(C)c32)cc1,"inconclusive: 31.6 µM [cytotoxic, single point]"
12,CCCCCCNC(=O)CC(c1ccccc1)c1cc(Br)ccc1O (centres undefined),"inconclusive: 25.1 µM [cytotoxic, single point]"
13,O=C(Nc1nc2ccccc2n1CCOc1ccccc1Cl)c1ccccc1,inactive
14,CC(=O)c1ccc(NC(=O)c2nc(-c3ccccc3)n(-c3ccccc3)n2)cc1,"inconclusive: 3.16 µM [cytotoxic, single point]"
15,CC(=O)c1ccccc1OCC(O)Cn1c(CO)nc2ccccc21 (centres undefined),"inconclusive: 15.8 µM [cytotoxic, single point]"
16,CCOC(=O)c1nnn(-c2ccc(OC)cc2)c1N,inactive
17,Cc1cc(OCC(O)CN2CCN(c3cccc(Cl)c3)CC2)ccc1Cl (centres undefined),"inconclusive: 35.5 µM [cytotoxic, single point]"
18,COc1ccc(CNC(=O)CN2C(=O)CCn3nc(-c4ccccc4)cc32)c(OC)c1,inactive
19,CCN(CC)CCCNC(=O)c1nn(C)c2c1CSc1ccccc1-2,"inconclusive: 35.5 µM [cytotoxic, single point]"
20,CCCCNC(=O)c1cc(-c2ccc(OC)cc2)nc2n[nH]c(-c3cccc([N+](=O)[O-])c3)c12,inactive
21,Cc1ccc(NS(=O)(=O)c2cc(-c3cnc(C4CC4)o3)ccc2C)cc1Cl,"inconclusive: 25.1 µM [cytotoxic, partial curve]"
22,COc1ccc(-c2nnc(SCC(=O)N(C)C3CCCCC3)o2)cc1OC,inactive

row,Structure (SMILES),Potency
1,CCS(=O)(=O)c1ncc(Cl)c(C(=O)Nc2ccccc2)n1,active: 20 µM
2,Cc1ccc(N=C2NC(=O)CC(C(=O)Nc3cc(C(F)(F)F)ccc3Cl)S2)cc1 (centres undefined),"inconclusive: 10 µM [cytotoxic, partial curve]"
3,O=S(=O)(c1ccc(Cl)cc1)c1nnn2c1nc(NCc1ccc3c(c1)OCO3)c1sccc12,"inconclusive: 7.94 µM [cytotoxic, partial curve]"
4,Cc1ccc(NC(=O)N2CCN(c3ccc(Cl)c(Cl)c3)CC2)cc1,"inconclusive: 35.5 µM [cytotoxic, single point]"
5,COc1ccccc1N1CCN(C(CNC(=O)C(=O)NCc2ccc(F)cc2)c2cccnc2)CC1 (centres undefined),"inconclusive: 15.8 µM [cytotoxic, single point]"
6,CCS(=O)(=O)c1ncc(Cl)c(C(=O)Nc2c(C(=O)Nc3cccc(C)c3)oc3ccccc23)n1,"inconclusive: 31.6 µM [cytotoxic, single point]"
7,Cc1cc(C)cc(NC(=O)CSc2oc(-c3ccco3)nc2S(=O)(=O)c2ccc(Cl)cc2)c1,"inconclusive: 10 µM [cytotoxic, single point]"
8,CCCOc1ccc(CNC(=O)CCCn2nc(C)c3sc4ccccc4c3c2=O)cc1,"inconclusive: 31.6 µM [cytotoxic, single point]"
9,COc1ccc(Nc2c3c(nc4ccc(NC(=O)c5ccc(F)cc5)cc24)CCCC3)cc1OC,inactive
10,COc1ccc(NS(=O)(=O)c2ccc3[nH]c4c(c3c2)CCCC4)cc1OC,inactive
11,CCn1ccc2c(OCC(=O)Nc3ccccc3C(F)(F)F)cccc2c1=O,inactive
12,COc1cccc(CNc2cc(C)nc3nc(-c4ccc(C)cc4)nn23)c1,"inconclusive: 31.6 µM [cytotoxic, single point]"
13,Cc1nc2ccn(Cc3ccco3)c(=O)c2cc1C(=O)NCc1ccccc1,"inconclusive: 0.316 µM [cytotoxic, full curve]"
14,O=C(CSc1ncc(S(=O)(=O)c2ccc(Cl)cc2)c(=O)[nH]1)Nc1cccc(C(F)(F)F)c1,inactive
15,COC(=O)c1ccc(C(=O)OC)c(NC(=O)c2ccc(-c3ccccc3)s2)c1,"inconclusive: 0.0501 µM [cytotoxic, full curve, poor fit]"
16,COc1ccc(-c2nc(SCC(=O)Nc3c(C)cc(C)cc3C)n[nH]2)cc1,"inconclusive: 35.5 µM [cytotoxic, partial curve]"
17,CC1Cc2ccccc2N1S(=O)(=O)c1nnc(NC(=O)c2ccccc2)s1 (centres undefined),"inconclusive: 0.631 µM [cytotoxic, full curve, poor fit]"
18,O=C(NCCCN1CCN(c2ccccc2)CC1)c1ccc2nc(Cc3ccccc3)oc2c1,inactive
19,COc1ccccc1Nc1cc(C(=O)NCc2cccs2)c2ccccc2n1,"inconclusive: 14.1 µM [cytotoxic, partial curve]"
20,Cc1ccc(NCc2nc3ccccc3n2CCOc2ccccc2)cc1,"inconclusive: 31.6 µM [cytotoxic, single point]"
21,CCCCn1c(CNC(=O)c2ccc(OC)cc2)nnc1SCC(=O)Nc1ccc(OC)cc1,inactive
22,Cc1cc(C)c(S(=O)(=O)NCC(c2cccs2)S(=O)(=O)c2ccccc2)c(C)c1 (centres undefined),inactive
